Data reported in article PMC6765112, “Specificity of MYB interactions relies on motifs in ordered and disordered contexts” (Nucleic Acids Research, 2019).
Substitutions are numbered along the chain they refer to. Numbers in names are those of the source. Like-named read-outs stand apart in the source and are kept apart here. No constants are given. Whether binding was seen depends on the method and setting. For some of these results: Binding seen in cells or lysates may run through a third protein. Some results given as binding are weak or reduced against the parent protein; the word gives no strength.

Amino acid sequences for entries named in this document (tags omitted).
UniProt Q9FIP9: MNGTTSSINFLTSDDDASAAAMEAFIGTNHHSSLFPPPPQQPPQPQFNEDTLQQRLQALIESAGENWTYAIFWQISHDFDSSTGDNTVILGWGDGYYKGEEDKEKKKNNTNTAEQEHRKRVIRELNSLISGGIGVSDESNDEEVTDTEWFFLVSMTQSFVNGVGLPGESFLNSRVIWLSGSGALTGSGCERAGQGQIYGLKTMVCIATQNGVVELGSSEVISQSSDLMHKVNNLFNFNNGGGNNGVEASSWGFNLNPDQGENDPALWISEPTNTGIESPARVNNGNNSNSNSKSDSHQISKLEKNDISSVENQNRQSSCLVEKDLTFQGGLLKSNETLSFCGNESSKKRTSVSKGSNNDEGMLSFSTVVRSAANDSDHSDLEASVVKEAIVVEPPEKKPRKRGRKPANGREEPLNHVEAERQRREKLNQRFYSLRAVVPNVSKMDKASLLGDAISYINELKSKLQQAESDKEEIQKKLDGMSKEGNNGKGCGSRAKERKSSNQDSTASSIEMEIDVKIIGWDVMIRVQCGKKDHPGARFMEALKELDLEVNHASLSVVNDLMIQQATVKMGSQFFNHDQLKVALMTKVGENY
UniProt O49608: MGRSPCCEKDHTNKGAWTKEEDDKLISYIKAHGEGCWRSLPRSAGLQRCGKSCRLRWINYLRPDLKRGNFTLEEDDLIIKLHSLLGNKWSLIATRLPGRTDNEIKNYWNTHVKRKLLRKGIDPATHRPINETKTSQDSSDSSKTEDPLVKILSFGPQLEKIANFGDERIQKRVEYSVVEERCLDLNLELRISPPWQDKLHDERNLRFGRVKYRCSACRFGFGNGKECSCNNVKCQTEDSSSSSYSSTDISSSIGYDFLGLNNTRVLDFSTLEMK

T1: GL3 (Arabidopsis thaliana) (UniProt Q9FN69)
T1 sequence: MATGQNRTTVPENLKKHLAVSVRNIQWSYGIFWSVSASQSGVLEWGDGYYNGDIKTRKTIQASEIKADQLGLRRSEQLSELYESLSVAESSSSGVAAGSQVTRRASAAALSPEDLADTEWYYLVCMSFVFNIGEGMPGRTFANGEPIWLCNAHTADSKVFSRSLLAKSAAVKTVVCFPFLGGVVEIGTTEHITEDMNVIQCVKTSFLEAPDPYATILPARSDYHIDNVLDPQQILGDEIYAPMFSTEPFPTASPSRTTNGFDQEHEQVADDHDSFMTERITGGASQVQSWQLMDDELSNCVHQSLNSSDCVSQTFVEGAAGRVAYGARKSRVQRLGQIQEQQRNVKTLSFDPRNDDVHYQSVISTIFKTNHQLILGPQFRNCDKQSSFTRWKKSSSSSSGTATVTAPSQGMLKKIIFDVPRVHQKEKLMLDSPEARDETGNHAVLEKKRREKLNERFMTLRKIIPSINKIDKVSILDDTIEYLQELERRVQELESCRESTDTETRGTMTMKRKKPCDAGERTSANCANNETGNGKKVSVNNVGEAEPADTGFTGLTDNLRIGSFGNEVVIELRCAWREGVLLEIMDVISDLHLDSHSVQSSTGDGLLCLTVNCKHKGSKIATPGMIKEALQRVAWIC

T2: L190A-MIM peptide (F180-G201 of MYB29, L190A) (Arabidopsis thaliana) (UniProt Q9FLR1)
T2 sequence (peptide, biotin on the N-terminus): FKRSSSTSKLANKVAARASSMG

B1: MYB75 full-length (protein, UniProt Q9FE25 1-248)
chain: MEGSSKGLRKGAWTTEEDSLLRQCINKYGEGKWHQVPVRAGLNRCRKSCRLRWLNYLKPSIKRGKLSSDEVDLLLRLHRLLGNRWSLIAGRLPGRTANDVKNYWNTHLSKKHEPCCKIKMKKRDITPIPTTPALKNNVYKPRPRSFTVNNDCNHLNAPPKVDVNPPCLGLNINNVCDNSIIYNKDKKKDQLVNNLIDGDNMWLEKFLEESQEVDILVPEATTTEKGDTLAFDVDQLWSLFDGETVKFD
B2: MYB75 DBD (residues M1-P114) (domain or fragment, UniProt Q9FE25 1-114)
chain: MEGSSKGLRKGAWTTEEDSLLRQCINKYGEGKWHQVPVRAGLNRCRKSCRLRWLNYLKPSIKRGKLSSDEVDLLLRLHRLLGNRWSLIAGRLPGRTANDVKNYWNTHLSKKHEP
B3: MYB29 full-length (protein, UniProt Q9FLR1 1-336)
chain: MSRKPCCVGEGLKKGAWTAEEDKKLISYIHEHGEGGWRDIPQKAGLKRCGKSCRLRWANYLKPDIKRGEFSYEEEQIIIMLHASRGNKWSVIARHLPKRTDNEIKNYWNTHLKKLLIDKGIDPVTHKPLAYDSNPDEQSQSGSISPKSLPPSSSKNVPEITSSDETPKYDASLSSKKRCFKRSSSTSKLLNKVAARASSMGTILGASIEGTLISSTPLSSCLNDDFSETSQFQMEEFDPFYQSSEHIIDHMKEDISINNSEYDFSQFLEQFSNNEGEEADNTGGGYNQDLLMSDVSSTSVDEDEMMQNITGWSNYLLDHSDFNYDTSQDYDDKNFI
B4: MYB75 non-MYB region (residues K110-D248) (domain or fragment, UniProt Q9FE25 110-248)
chain: KKHEPCCKIKMKKRDITPIPTTPALKNNVYKPRPRSFTVNNDCNHLNAPPKVDVNPPCLGLNINNVCDNSIIYNKDKKKDQLVNNLIDGDNMWLEKFLEESQEVDILVPEATTTEKGDTLAFDVDQLWSLFDGETVKFD
B5: MYC4 N-terminal domain (L55-N253) (domain or fragment, Arabidopsis thaliana, UniProt O49687 55-253, looked up)
chain: LPQVNEDNLQQRLQALIEGANENWTYAVFWQSSHGFAGEDNNNNNTVLLGWGDGYYKGEEEKSRKKKSNPASAAEQEHRKRVIRELNSLISGGVGGGDEAGDEEVTDTEWFFLVSMTQSFVKGTGLPGQAFSNSDTIWLSGSNALAGSSCERARQGQIYGLQTMVCVATENGVVELGSSEIIHQSSDLVDKVDTFFNFN
notes: MYC4, Arabidopsis thaliana, N-terminal domain with the JID, residues L55-N253 (AA55-253); recombinant protein of 22.7 kDa; expressed from pET52u; source: E. coli BL21(DE3), purified (HisTrap HP IMAC, dialysed to PBS pH 7.4 with 1 mM DTT); not shown: 6xHis, C-terminal, kept
B6: MYB29 with mutated MIM (L190K, K192N, A194Y) (protein, UniProt Q9FLR1 1-336)
chain: B3 chain with L190K, K192N, A194Y

Experiments:
[1] = biological target: MYC3 (Arabidopsis thaliana) (UniProt Q9FIP9); assay: split-ubiquitin assay; chemically inducible dimerization split-ubiquitin system in yeast NMY51 TOR1-1 Δfpr1; bHLH as bait (pFKBP12), MYB as prey (pFRB); drop tests of three colonies on SD-AHLW, 2 days at 30°C; SD-AHLW+Rapa as positive control
[2] = biological target: MYC4 (Arabidopsis thaliana) (UniProt O49687); assay: as above
[3] = biological target: T1, GL3 (Arabidopsis thaliana); assay: as above
[4] = biological target: MYC3 (Arabidopsis thaliana) (UniProt Q9FIP9); assay: as above; remark: listed apart in the source
[5] = biological target: MYC4 (Arabidopsis thaliana) (UniProt O49687); assay: as above; remark: listed apart in the source
[6] = biological target: T2, L190A-MIM peptide (F180-G201 of MYB29, L190A) (Arabidopsis thaliana); assay: BLI; biotinylated peptide (1 μM) immobilised on streptavidin biosensors; MYC4Nt 130 to 0.1 μM; PBS pH 7.4, 1 mM DTT, 0.05% bovine serum albumin; BLItz; equilibrium responses fitted to a Hill equation; both purified

| Molecule | binding [3] | binding [4] | binding [5] | other results |
| --- | --- | --- | --- | --- |
| MYB32 (from UniProt O49608 1-274) | – | – | – | binding [1]: no binding; binding [2]: no binding |
| B1 | binds | no binding | no binding | – |
| B2 | binds | – | – | – |
| B3 | no binding | binds | binds | – |
| B4 | no binding | – | – | – |
| B5 | – | – | – | binding [6]: no binding (tested: 130 μM) |
| B6 | – | no binding | no binding | – |
